28 compounds from patent publication US7517874B2 (priority 2007, dated 2009) can be followed below.

Structures can show the parent of a compound that is named as a salt.

As usually defined, the EC50 is the concentration needed to bring the measured effect to its halfway point.

For one assay, the target named is human CB2 receptor (hCB2) (Homo sapiens, UniProt P34972). Description: cell-based.
Chain of human CB2 receptor (hCB2) (P34972 whole entry): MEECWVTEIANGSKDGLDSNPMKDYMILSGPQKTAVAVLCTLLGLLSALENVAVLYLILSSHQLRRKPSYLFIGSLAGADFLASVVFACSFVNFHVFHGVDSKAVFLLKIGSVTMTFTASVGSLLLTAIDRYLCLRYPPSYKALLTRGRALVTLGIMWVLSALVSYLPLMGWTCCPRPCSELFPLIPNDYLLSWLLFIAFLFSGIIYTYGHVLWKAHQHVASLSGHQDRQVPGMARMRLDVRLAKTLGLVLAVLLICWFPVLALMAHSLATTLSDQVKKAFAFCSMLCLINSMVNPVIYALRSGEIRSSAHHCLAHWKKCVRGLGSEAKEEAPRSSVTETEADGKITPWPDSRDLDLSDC
Details: not given
Type of assay: cell-based.
Consider `CNC(=O)[C@@H](NC(=O)c1nc(-c2ccc(OC)cc2C)n2c1CN(C)CCC2)C(C)(C)C` [Compound 343, (S)-N-(3,3-dimethyl-1-(methylamino)-1-oxobutan-2-yl)-3-(4-methoxy-2-methylphenyl)-8-methyl-6,7,8,9-tetrahydro-5H-imidazo[1,5-a][1,4]diazepine-1-carboxamide], for which the EC50 was over 10000 nM.
For the compound `CN1CCn2c(-c3ccccc3)nc(C(=O)N[C@H](C(=O)O)C(C)(C)C)c2C1` [Compound 281, (S)-3,3-dimethyl-2-(7-methyl-3-phenyl-5,6,7,8-tetrahydroimidazo[1,5-a]pyrazine-1-carboxamido)butanoic acid], the EC50 is over 10000 nM.
Still for that read-out and setting: the figure for `CNC(=O)[C@@H](NC(=O)c1nc(C#Cc2cccnc2)n2c1CN(C)CC2)C(C)(C)C` [Compound 205, (S)-N-(3,3-dimethyl-1-(methylamino)-1-oxobutan-2-yl)-7-methyl-3-(pyridin-3-ylethynyl)-5,6,7,8-tetrahydroimidazo[1,5-a]pyrazine-1-carboxamide] is over 10000 nM; for `CC(C)CCNC(=O)c1nc(-c2ccc(Cl)cc2)n2c1CN(C(=O)c1ccccc1)CC2` [Compound 130, 7-benzoyl-3-(4-chlorophenyl)-N-isopentyl-5,6,7,8-tetrahydroimidazo[1,5-a]pyrazine-1-carboxamide] it is over 10000 nM; for `CC(C)(C)CNC(=O)c1nc(-c2ccccc2)n2c1CN(S(=O)(=O)c1ccc(F)cc1)CC2` [Compound 103, 7-(4-fluorophenylsulfonyl)-N-neopentyl-3-phenyl-5,6,7,8-tetrahydroimidazo[1,5-a]pyrazine-1-carboxamide] it is over 10000 nM.
Same read-out and setting: with `CNC(=O)[C@@H](NC(=O)c1nc(-c2cccc(C(=O)N(C)C)c2)n2c1CN(C)CCC2)C(C)(C)C` [Compound 412, (S)-N-(3,3-dimethyl-1-(methylamino)-1-oxobutan-2-yl)-3-(3-(dimethylcarbamoyl)phenyl)-8-methyl-6,7,8,9-tetrahydro-5H-imidazo[1,5-a][1,4]diazepine-1-carboxamide] the figure was over 10000 nM.
In turn, `CNC(=O)[C@@H](NC(=O)c1nc(CCCN2CCOCC2)n2c1CN(C)CC2)C(C)(C)C` [Compound 309, (S)-N-(3,3-dimethyl-1-(methylamino)-1-oxobutan-2-yl)-7-methyl-3-(3-morpholinopropyl)-5,6,7,8-tetrahydroimidazo[1,5-a]pyrazine-1-carboxamide] came in with a 50% effective concentration (EC50) of over 10000 nM.

Still in this assay, the particulars now being: agonist or inverse agonist at hCB2.
For the compound `CNC(=O)[C@@H](NC(=O)c1nc(-c2cccc(C#N)c2)n2c1CN(C)CCC2)C(C)(C)C` [Compound 328, (S)-3-(3-cyanophenyl)-N-(3,3-dimethyl-1-(methylamino)-1-oxobutan-2-yl)-8-methyl-6,7,8,9-tetrahydro-5H-imidazo[1,5-a][1,4]diazepine-1-carboxamide], the “+/− HCB2” value was “+”.
On the same count and under the same terms, with `CNC(=O)[C@@H](NC(=O)c1nc(-c2cscc2C)n2c1CN(C)CCC2)C(C)(C)C` [Compound 352, (S)-N-(3,3-dimethyl-1-(methylamino)-1-oxobutan-2-yl)-8-methyl-3-(4-methylthiophen-3-yl)-6,7,8,9-tetrahydro-5H-imidazo[1,5-a][1,4]diazepine-1-carboxamide] the entry was “+”; with `CN1CCCn2c(-c3ccc(Cl)c(F)c3)nc(C(=O)N[C@@H](CC(C)(C)C)C(N)=O)c2C1` [Compound 588, (S)-N-(1-amino-4,4-dimethyl-1-oxopentan-2-yl)-3-(4-chloro-3-fluorophenyl)-8-methyl-6,7,8,9-tetrahydro-5H-imidazo[1,5-a][1,4]diazepine-1-carboxamide], “+”; with `CNC(=O)[C@@H](NC(=O)c1nc(-c2ccc(Cl)cc2F)n2c1CN(c1ncccn1)CCC2)C(C)(C)C` [Compound 482, 3-(4-chloro-2-fluorophenyl)-N-(3,3-dimethyl-1-(methylamino)-1-oxobutan-2-yl)-8-(pyrimidin-2-yl)-6,7,8,9-tetrahydro-5H-imidazo[1,5-a][1,4]diazepine-1-carboxamide], “+”.
Same read-out and setting: the entry for `CNC(=O)[C@@H](NC(=O)c1nc(-c2ccc(F)c(C(N)=O)c2)n2c1CN(C)CCC2)C(C)(C)C` [Compound 429, (S)-3-(3-carbamoyl-4-fluorophenyl)-N-(3,3-dimethyl-1-(methylamino)-1-oxobutan-2-yl)-8-methyl-6,7,8,9-tetrahydro-5H-imidazo[1,5-a][1,4]diazepine-1-carboxamide] is “+”.
Still for that read-out and setting: with `CNC(=O)[C@H](CC(C)C)NC(=O)c1nc(-c2ccc(C(F)(F)F)cc2F)n2c1CN(C)CCC2` [Compound 533, (S)-3-(2-fluoro-4-(trifluoromethyl)phenyl)-8-methyl-N-(4-methyl-1-(methylamino)-1-oxopentan-2-yl)-6,7,8,9-tetrahydro-5H-imidazo[1,5-a][1,4]diazepine-1-carboxamide] the entry was “+”; with `CNC(=O)[C@@H](NC(=O)c1nc(C2=CCC3(CC2)OCCO3)n2c1CN(C)CCC2)C(C)(C)C` [Compound 448, (S)-N-(3,3-dimethyl-1-(methylamino)-1-oxobutan-2-yl)-8-methyl-3-(1,4-dioxaspiro[4.5]dec-7-en-8-yl)-6,7,8,9-tetrahydro-5H-imidazo[1,5-a][1,4]diazepine-1-carboxamide], “+”; with `CN1CCCn2c(-c3cc(F)c(F)cc3F)nc(C(=O)N[C@@H](CC(C)(C)C)C(N)=O)c2C1` [Compound 590, (S)-N-(1-amino-4,4-dimethyl-1-oxopentan-2-yl)-8-methyl-3-(2,4,5-trifluorophenyl)-6,7,8,9-tetrahydro-5H-imidazo[1,5-a][1,4]diazepine-1-carboxamide], “+”.
Regarding `CNC(=O)[C@@H](NC(=O)c1nc(-c2cc(F)c(F)cc2F)n2c1CN(C)CCC2)C1CCCCC1` [Compound 541, (S)-N-(1-cyclohexyl-2-(methylamino)-2-oxoethyl)-8-methyl-3-(2,4,5-trifluorophenyl)-6,7,8,9-tetrahydro-5H-imidazo[1,5-a][1,4]diazepine-1-carboxamide], the “+/− HCB2” value is “+”.
Still for that read-out and setting: with `CNC(=O)[C@@H](NC(=O)c1nc(-c2ccc(C(C)=O)cc2)n2c1CN(C)CCC2)C(C)(C)C` [Compound 415, (S)-3-(4-acetylphenyl)-N-(3,3-dimethyl-1-(methylamino)-1-oxobutan-2-yl)-8-methyl-6,7,8,9-tetrahydro-5H-imidazo[1,5-a][1,4]diazepine-1-carboxamide] the entry was “+”; with `CN1CCCn2c(-c3ccc(F)cc3F)nc(C(=O)N[C@H](C(N)=O)C(C)(C)C)c2C1` [Compound 578, (S)-N-(1-amino-3,3-dimethyl-1-oxobutan-2-yl)-3-(2,4-difluorophenyl)-8-methyl-6,7,8,9-tetrahydro-5H-imidazo[1,5-a][1,4]diazepine-1-carboxamide], “+”.
The same measure, in the same setting: the entry for `CNC(=O)[C@@H](NC(=O)c1nc(C2=CCCCO2)n2c1CN(C)CCC2)C(C)(C)C` [Compound 452, (S)-3-(3,4-dihydro-2H-pyran-6-yl)-N-(3,3-dimethyl-1-(metylamino)-1-oxobutan-2-yl)-8-methyl-6,7,8,9-tetrahydro-5H-imidazo[1,5-a][1,4]diazepine-1-carboxamide] is “+”.
Still for that read-out and setting: the entry for `CNC(=O)[C@@H](NC(=O)c1nc(C(C)C)n2c1CN(C)CCC2)C(C)(C)C` [Compound 496, (S)-N-(3,3-dimethyl-1-(methylamino)-1-oxobutan-2-yl)-3-isopropyl-8-methyl-6,7,8,9-tetrahydro-5H-imidazo[1,5-a][1,4]diazepine-1-carboxamide] is “+”; for `CN1CCn2c(-c3ccccc3)nc(C(=O)N[C@@H](CO)C(C)(C)C)c2C1` [Compound 67, (R)-N-(1-hydroxy-3,3-dimethylbutan-2-yl)-7-methyl-3-phenyl-5,6,7,8-tetrahydroimidazo[1,5-a]pyrazine-1-carboxamide] it is “+”; for `C[C@@H](NC(=O)c1nc(-c2ccccc2)n2c1CN(C(=O)OC(C)(C)C)CC2)C1CCCCC1` [Compound 37, (R)-tert-butyl 1-(1-cyclohexylethylcarbamoyl)-3-phenyl-5,6-dihydroimidazo[1,5-a]pyrazine-7(8H)-carboxylate] it is “−”.
Take `CN1CCn2c(-c3ccccc3)nc(C(=O)N[C@H](C(N)=O)C(C)(C)C)c2C1` [Compound 285, (S)-N-(1-amino-3,3-dimethyl-1-oxobutan-2-yl)-7-methyl-3-phenyl-5,6,7,8-tetrahydroimidazo[1,5-a]pyrazine-1-carboxamide]: the “+/− HCB2” value is on record as “+”.
In the case of `CC12CCC(C1)C(C)(C)C2NC(=O)c1nc(-c2ccccc2)n2c1CNCC2` (stereo not shown) [Compound 39, 3-Phenyl-N-(1,3,3-trimethylbicyclo[2.2.1]heptan-2-yl)-5,6,7,8-tetrahydro-imidazo[1,5-a]pyrazine-1-carboxamide HCl], the “+/− HCB2” value was “+”.
The same measure, in the same setting: with `CN1CCCn2c(-c3ccccc3)nc(C(=O)N[C@H](C(N)=O)C(C)(C)C)c2C1` [Compound 582] the entry was “+”; with `CNC(=O)[C@H](CC(C)C)NC(=O)c1nc(-c2ccc(F)c(Cl)c2)n2c1CN(C)CCC2` [Compound 537, (S)-3-(3-chloro-4-fluorophenyl)-8-methyl-N-(4-methyl-1-(methylamino)-1-oxopentan-2-yl)-6,7,8,9-tetrahydro-5H-imidazo[1,5-a][1,4]diazepine-1-carboxamide], “+”.

Still in this assay, the particulars now being: groups >100 nM-10 μM and >10 μM; cAMP, CHO-K1 hCB2; read-out: EC50 HCB2.
As to `CC(C)CN1CCn2c(-c3ccccc3)nc(C(=O)N3CCOCC3)c2C1` [Compound 70, (7-isobutyl-3-phenyl-5,6,7,8-tetrahydroimidazo[1,5-a]pyrazin-1-yl)(morpholino)methanone], the EC50 was over 10000 nM.
Same read-out and setting: with `CNC(=O)[C@@H](NC(=O)c1nc(-c2cc(C(N)=O)ccc2F)n2c1CN(C)CCC2)C(C)(C)C` [Compound 405, (S)-3-(5-carbamoyl-2-fluorophenyl)-N-(3,3-dimethyl-1-(methylamino)-1-oxobutan-2-yl)-8-methyl-6,7,8,9-tetrahydro-5H-imidazo[1,5-a][1,4]diazepine-1-carboxamide] the figure was over 10000 nM.
